Reference: the supplement of paper PMC4967469

Tests used:
Assay in all cases: Viability of human cancer cell lines after 72 h of drug (GDSC screen)
[1] = compound: CCN1CCC(n2cc(CNc3cc(Cl)c4ncc(C#N)c(Nc5ccc(F)c(Cl)c5)c4c3)nn2)CC1 [KIN001-266]; settings: top dose 20 µM; top dose inferred
Description: (§1)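 Human cancer cell lines in 384-well plates, medium with 10% serum, drug for 72 h over a 256-fold dose range (nine 2-fold or five 4-fold steps up to the top dose). Adherent lines were fixed and stained with the nucleic acid dye Syto60, suspension lines read with resazurin; signal relative to control wells, capped at 0 and 100%. One two-parameter sigmoid per drug and line, fitted in a mixed model over all curves with the slope shared within a line.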

[2] = compound: O=C1/C(=C/c2cccs2)CC/C1=C\c1cccs1 [CCT007093]; settings: top dose 6.6 µM; top dose inferred
Description: as §1

[3] = compound: COc1ccc(-c2cc3nccn3c(Nc3ncccc3C(N)=O)n2)cc1OC [BAY 61-3606]; settings: top dose 8 µM; top dose inferred
Description: as §1

[4] = compound: C=CC(=O)N1CCc2ccc(-n3c(=O)ccc4cnc5ccc(-c6cnn(C)c6)cc5c43)cc21 [QL-XII-47]; settings: top dose 10.24 µM; top dose inferred
Description: as §1

Cell Line | AUC [1] | IC50 [1] | AUC [2] | IC50 [2] | AUC [3] | IC50 [3] | AUC [4] | IC50 [4]
LXF-289 (lung adenocarcinoma, adherent) | 0.873 | 18.7 µM | 0.986 | > 6.6 µM | 0.881 | > 8 µM | 0.687 | 2.12 µM
M14 (melanoma, adherent) | 0.867 | 19.8 µM | 0.983 | > 6.6 µM | 0.962 | > 8 µM | 0.985 | > 10.2 µM
M059J (glioma, adherent) | 0.833 | 14.5 µM | 0.979 | > 6.6 µM | 0.78 | 3.58 µM | 0.447 | 0.453 µM
MC116 (B-cell lymphoma, suspension) | 0.927 | 14.2 µM | 0.999 | > 6.6 µM | 0.768 | 2.22 µM | 0.788 | 3.17 µM
MC-CAR (haematopoietic neoplasm, suspension) | 0.849 | 12.7 µM | 0.968 | > 6.6 µM | 0.635 | 1.13 µM | 0.477 | 0.557 µM
MCF7 (breast, adherent) | 0.981 | > 20 µM | 0.809 | 3.61 µM | 0.631 | 1.16 µM | 0.986 | > 10.2 µM
MDA-MB-157 (breast, adherent) | 0.959 | > 20 µM | 0.984 | > 6.6 µM | 0.988 | > 8 µM | 0.876 | > 10.2 µM
MDA-MB-175-VII (breast, adherent) | 0.943 | > 20 µM | 0.983 | > 6.6 µM | 0.92 | > 8 µM | 0.626 | 1.48 µM
MDA-MB-231 (breast, adherent) | 0.972 | > 20 µM | 0.982 | > 6.6 µM | 0.986 | > 8 µM | 0.829 | 6.93 µM
MDA-MB-361 (breast, adherent) | 0.957 | > 20 µM | 0.955 | > 6.6 µM | 0.813 | 4.27 µM | 0.864 | 8.79 µM
MDA-MB-415 (breast, adherent) | 0.975 | > 20 µM | 0.975 | > 6.6 µM | 0.971 | > 8 µM | 0.973 | > 10.2 µM
MDA-MB-436 (breast, adherent) | 0.91 | > 20 µM | 0.97 | > 6.6 µM | 0.954 | > 8 µM | 0.941 | > 10.2 µM
MDA-MB-453 (breast, adherent) | 0.885 | > 20 µM | 0.966 | > 6.6 µM | 0.986 | > 8 µM | 0.602 | 1.26 µM
MDA-MB-468 (breast, adherent) | 0.871 | 17.6 µM | 0.965 | > 6.6 µM | 0.987 | > 8 µM | 0.781 | 4.08 µM
MDST8 (large intestine, adherent) | 0.877 | 19.7 µM | 0.89 | > 6.6 µM | 0.95 | > 8 µM | 0.883 | > 10.2 µM
ME-1 (acute myeloid leukaemia, suspension) | 0.945 | > 20 µM | 0.975 | > 6.6 µM | 0.989 | > 8 µM | 0.832 | 7.19 µM
ME-180 (cervix, adherent) | 0.839 | 14.5 µM | 0.977 | > 6.6 µM | 0.968 | > 8 µM | 0.479 | 0.558 µM
MEG-01 (chronic myeloid leukaemia, suspension) | 0.866 | 16.1 µM | 0.988 | > 6.6 µM | 0.818 | 4.18 µM | 0.525 | 0.745 µM
MEL-JUSO (melanoma, adherent) | 0.843 | 16.7 µM | 0.931 | > 6.6 µM | 0.752 | 2.92 µM | 0.609 | 1.32 µM
MES-SA (uterus, adherent) | 0.987 | > 20 µM | 0.987 | > 6.6 µM | 0.624 | 1.04 µM | 0.927 | > 10.2 µM
MFE-280 (endometrium, adherent) | 0.874 | > 20 µM | 0.982 | > 6.6 µM | 0.981 | > 8 µM | 0.765 | 4.75 µM
MFE-296 (endometrium, adherent) | 0.969 | > 20 µM | 0.985 | > 6.6 µM | 0.908 | > 8 µM | 0.865 | 10.1 µM
MFE-319 (endometrium, adherent) | 0.898 | > 20 µM | 0.98 | > 6.6 µM | 0.826 | 4.63 µM | 0.986 | > 10.2 µM
MFH-ino (soft tissue, adherent) | 0.909 | > 20 µM | 0.982 | > 6.6 µM | 0.893 | > 8 µM | 0.802 | 6.12 µM
MFM-223 (breast, adherent) | 0.896 | > 20 µM | 0.985 | > 6.6 µM | 0.989 | > 8 µM | 0.741 | 3.1 µM
MG-63 (osteosarcoma, adherent) | 0.982 | > 20 µM | 0.939 | > 6.6 µM | 0.932 | > 8 µM | 0.984 | > 10.2 µM
MHH-ES-1 (Ewing sarcoma, adherent) | 0.692 | 4.27 µM | 0.951 | > 6.6 µM | 0.844 | 5.59 µM | 0.671 | 1.9 µM
MHH-PREB-1 (B-cell leukaemia, suspension) | 0.692 | 4.03 µM | 0.984 | > 6.6 µM | 0.754 | 2.45 µM | 0.51 | 0.681 µM
MIA-PaCa-2 (pancreas, adherent) | 0.969 | > 20 µM | 0.983 | > 6.6 µM | 0.843 | 6.53 µM | 0.981 | > 10.2 µM
MKN1 (stomach, adherent) | 0.955 | > 20 µM | 0.971 | > 6.6 µM | 0.829 | 5.35 µM | 0.786 | 4.69 µM

A lower IC50 marks a more sensitive line; a fit beyond the top or the lowest dose is shown as a bound at that dose. The AUC spans the tested range (256-fold, ending at the top dose) of the same fit; it is 1 without any effect and falls as sensitivity rises. Where the top dose is marked as inferred, it was calculated from the reported fits.
